Test results published in patent US20210032308A1 (published 2021).

Target: T1, recombinant human CD2 (biotinylated) (human, UniProt P06729 25-209, biotinylated (site not stated))
T1 construct: also called hCD2-biotin; human recombinant CD2
T1 sequence: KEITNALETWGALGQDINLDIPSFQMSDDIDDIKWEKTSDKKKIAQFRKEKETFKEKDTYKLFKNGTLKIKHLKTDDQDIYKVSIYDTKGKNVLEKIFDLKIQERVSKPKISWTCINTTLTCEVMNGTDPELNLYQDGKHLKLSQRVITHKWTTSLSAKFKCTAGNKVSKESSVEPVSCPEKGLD
Test: SPR (FIG. 7C)

binding result: binds
B1: M1-d3 Fc fusion protein (Fc fusion)
chain: FSQQIYGVVYGNVTFHVPSNVPLKEVLWKKQKDKVVEFENSEVRAFSSFKNRVYLDTVSGSLTIYNLTSSDEDEYEMESPNITDTFKFFLYVLESLPS[human IgG1 Fc not shown]
